Laboratory results: the supplement of paper PMC3334620
The full ranking holds about 33,000 sequences; the median of “E-score (-0.5 to 0.5)” is about -0.043, and the highest 2% start at about 0.37. Some of the results follow.

These sequences were tested against T1, Upc2 (UniProt Q12151) (assay: PBM E-score (8-mer binding enrichment) (E-score (-0.5 to 0.5)); higher = stronger / more preferred TF binding; most listed sequences are background and not binding sites). Settings: protein concentration: 200 nM; construct: GST-full length.
T1 sequence: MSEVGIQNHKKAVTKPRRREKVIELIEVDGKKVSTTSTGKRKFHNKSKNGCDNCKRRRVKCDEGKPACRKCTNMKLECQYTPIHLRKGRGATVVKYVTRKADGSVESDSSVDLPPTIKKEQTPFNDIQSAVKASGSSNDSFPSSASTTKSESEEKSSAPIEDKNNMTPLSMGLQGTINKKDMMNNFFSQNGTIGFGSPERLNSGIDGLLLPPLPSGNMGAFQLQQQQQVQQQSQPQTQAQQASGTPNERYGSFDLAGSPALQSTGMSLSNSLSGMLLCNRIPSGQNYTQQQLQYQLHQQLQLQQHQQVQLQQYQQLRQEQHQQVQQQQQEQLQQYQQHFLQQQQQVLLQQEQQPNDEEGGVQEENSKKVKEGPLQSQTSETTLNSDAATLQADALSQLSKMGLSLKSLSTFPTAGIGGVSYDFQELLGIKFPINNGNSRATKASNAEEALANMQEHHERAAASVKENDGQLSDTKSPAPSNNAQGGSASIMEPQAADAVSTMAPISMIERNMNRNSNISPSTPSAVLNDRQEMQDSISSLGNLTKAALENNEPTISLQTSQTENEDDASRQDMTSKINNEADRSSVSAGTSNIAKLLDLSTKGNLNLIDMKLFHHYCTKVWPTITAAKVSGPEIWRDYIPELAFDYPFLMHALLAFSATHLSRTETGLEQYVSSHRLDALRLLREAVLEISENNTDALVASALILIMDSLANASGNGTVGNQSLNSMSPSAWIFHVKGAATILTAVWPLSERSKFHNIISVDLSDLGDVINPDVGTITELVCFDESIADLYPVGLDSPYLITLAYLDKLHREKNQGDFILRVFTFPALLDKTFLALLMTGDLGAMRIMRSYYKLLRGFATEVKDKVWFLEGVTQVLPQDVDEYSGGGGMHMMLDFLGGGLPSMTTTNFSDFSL
Procedure, shortened: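 The E-score, a modified Wilcoxon-Mann-Whitney statistic, was computed by the Universal PBM Analysis Suite for every ungapped eight-base word pooled with its reverse complement. Scans behind it were normalised with masliner after bound GST-tagged yeast transcription factors were detected with fluorescent anti-GST. The proteins, at about 100-200 nM, had been applied to universal all-10-mer Agilent arrays made double-stranded by primer extension.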

Sequence | PBM E-score
CGGGACTC | -0.059
ATCCCTGG | -0.298
GCAATGAC | -0.234
CGGTAGTC | -0.0623
TCCCACAA | -0.14
CCATTAAG | -0.086
AAAACATT | 0.0244
AGCATCGA | 0.0299
AACATCTT | 0.00211
TGTGCGAA | 0.0333
ATGCAAGA | -0.281
GAAGTCTA | -0.107
ACCAGGCG | -0.143
AGGATAAT | 0.0766
GTACTGCA | 0.0397
ACTGCTCT | -0.199
GTGTCAGA | -0.302
GACCAATC | -0.117
TCCCTGCA | -0.0721
GACGTGCC | 0.00781
AGGGGGTC | -0.281
ATGGCCTA | -0.0709

Sequence | PBM E-score
ATTAACGG | 0.185
GTTGAGAA | -0.115
CTACATCC | -0.108
CATAAGTC | 0.0192
CAGTACAC | 0.0965
AATAGTGC | -0.124
GGACGTCC | -0.116
CCCCAACC | -0.14
CCCGGGAG | -0.218
GATTTCGA | 0.0126
CAGAACAG | -0.13
AGAAAGAC | -0.154
GAAATGCC | -0.0692
AGGCCGTA | 0.355
CGCATGCA | 0.0288
AGCGGTGA | -0.0679
ACTAAGAG | -0.00658
AGTAATAA | -0.0853
CCTGCTAA | -0.189
GCGCACCA | 0.0742
AGCCGTAA | 0.279
TCTAAACA | 0.093

Sequence | PBM E-score
GTATGTCA | 0.0928
GAGCAGCC | 0.00738
AGGTAGTA | 0.0448
CAGCCCGA | -0.171
ACGCAGCG | 0.0533
ACTCTTCC | -0.1
AACACTGG | -0.122
CGATGGAA | 0.02
ACAGCCAG | -0.0248
ATTCATCA | -0.152
GAAGACCA | -0.105
ATAAGAGC | 0.232
GAGTAGAA | 0.0248
ACGCGGCC | -0.0119
CGGAAGGC | -0.343
GAGGGCAA | 0.00341
TACTGGCA | -0.0792
CACCTAGA | -0.153
TACTCGGA | 0.135
AACCTACA | -0.0358
AGGAACAC | 0.0909
ATGCGACG | 0.306

Sequence | PBM E-score
AGTCATTC | -0.146
CTTACGAA | 0.399
CTATGCAG | -0.252
AAAATTGT | -0.0219
AAGAGGAT | -0.184
ACAAGATC | -0.143
CTTCTCCA | -0.304
CATATCGG | -0.217
AGTTCCCA | 0.0941
AGGGTCCG | -0.0147
ACAGGTGA | -0.177
CAGGACGC | -0.0928
TGTGTCAA | -0.126
CAAATATA | -0.104
CGCGATGC | 0.107
GTCCTGGA | -0.286
AAAATCGG | -0.0937
ACCTGTAT | 0.112
CCGCGTTC | 0.228
GACGATGA | -0.00259
